Measured values reported in PubChem BioAssay AID1030 (National Center for Advancing Translational Sciences (NCATS), 2008).
In all, about 220,000 compounds went through this assay and about 16,000 (7.3%) were called active. Inconclusive means that the source gave no clear call. Such entries were picked first, then a sample of the others. Calls follow the shape of the dose curve; as a rule, active = well fitted inhibition curve with a large enough effect (not every such curve was filed as active); inconclusive = small, poorly fitted or top-dose-only effect, or another doubt; inactive = no such curve, though single readings can be large or run the other way. Potencies beside an inconclusive call are fits to weak or partial responses and may not hold up.

Each molecule was assayed against Aldehyde dehydrogenase 1A1 (Homo sapiens) (UniProt P00352) (assay: qHTS Assay for Inhibitors of Aldehyde Dehydrogenase 1 (ALDH1A1)). Conditions: Purified ALDH1A1, NADH fluorescence, propionaldehyde substrate; series mostly up to 75.3 µM.
Chain of UniProt P00352 (P00352 whole entry, looked up): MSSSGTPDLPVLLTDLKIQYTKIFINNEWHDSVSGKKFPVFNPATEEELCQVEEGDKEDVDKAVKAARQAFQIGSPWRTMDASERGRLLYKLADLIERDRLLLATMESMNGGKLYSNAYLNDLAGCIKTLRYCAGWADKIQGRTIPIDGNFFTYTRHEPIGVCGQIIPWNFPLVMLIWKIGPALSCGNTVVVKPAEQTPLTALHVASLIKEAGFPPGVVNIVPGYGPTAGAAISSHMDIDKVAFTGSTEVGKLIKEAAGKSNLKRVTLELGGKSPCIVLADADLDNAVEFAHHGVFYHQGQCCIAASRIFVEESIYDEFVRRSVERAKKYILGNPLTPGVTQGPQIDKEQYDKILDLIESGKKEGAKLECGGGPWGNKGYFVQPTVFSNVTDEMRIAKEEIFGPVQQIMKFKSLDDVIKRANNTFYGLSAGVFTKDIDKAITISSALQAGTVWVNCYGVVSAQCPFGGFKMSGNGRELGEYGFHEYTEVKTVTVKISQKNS

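For activity, negative = inhibition in this document: plate controls were no enzyme wells and a reference inhibitor.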
Potency is read from the fitted curve at half-maximal effect; tags tell the direction and shape of the fitted curve.

Potency, inconclusive:
CSc1nnc(-c2ccc(S(=O)(=O)N3CCCC3)cc2)n1C 28.2 µM [inhibitor, partial curve]
COc1ccccc1[C@H]1C(c2cccc(Cl)c2)=NN(c2ccccc2)[C@@H]1CO 31.6 µM [inhibitor, partial curve]
CN(C)C=NC(=O)c1ccc(N2CCN(c3ncc(C(F)(F)F)cc3Cl)CC2)cc1 20 µM [inhibitor, single point]
CCOc1ccc2oc(C(=O)NCC(C)(C)CN(C)C)c(C)c2c1 25.1 µM [inhibitor, partial curve]
Cc1cc(C)cc(NC(=O)CSc2nnc(-c3ccc(S(=O)(=O)N4CCCC4)cc3)o2)c1 28.2 µM [inhibitor, single point]
O=C(NCCCNc1ccc([N+](=O)[O-])cc1)C(F)(F)F 39.8 µM [inhibitor, single point]
Cc1ccc(C)c(C(=O)CSc2nnc(C)s2)c1 37.7 µM [inhibitor, single point]
O=C(O)COc1cccc2nsnc12 10 µM [inhibitor, partial curve]
COc1ccccc1OCCCCN1CCN(c2ccccc2OC)CC1 39.8 µM [inhibitor, single point]
O=C(N/N=C\c1ccc(-c2ccc(Cl)c(Cl)c2)o1)C(=O)N1CCCC1 39.8 µM [inhibitor, partial curve]
COCCCn1c(CCC(=O)O)ccc1-c1ccc(F)cc1 28.2 µM [inhibitor, partial curve]
CC(=O)Nc1ccc(/C=N/N2C(C)CCCC2C)cc1 (centres undefined) 5.01 µM [inhibitor, full curve, poor fit]
Cc1ccc(/C(O)=C2\C(=O)C(=O)N(c3cc(C)on3)C2c2cccc(Br)c2)cc1 (centres undefined) 22.4 µM [inhibitor, single point]
Clc1ccccc1OCCn1ccnc1 25.1 µM [inhibitor, single point]
Cc1ccccc1OCc1nc(C#N)c(N2CCCC2)o1 39.8 µM [inhibitor, single point]
Cc1ccc2[nH]c(=O)c(CN(CC3CCCO3)C(=S)NCc3ccco3)cc2c1 (centres undefined) 20 µM [inhibitor, partial curve]
COc1ccccc1/C=C\C=N\n1c(C2CCCCC2)n[nH]c1=S 20 µM [inhibitor, partial curve]
Cc1ccc(N=Nc2ccc(N)cc2C)c(S(N)(=O)=O)c1 39.8 µM [inhibitor, single point]
COc1ccc(-c2nc(C#N)c(NC(C)c3ccccc3)o2)cc1OC (centres undefined) 22.4 µM [inhibitor, partial curve]
O=C(NCCc1ccccc1)c1ccc(-c2ccc(F)cc2)o1 39.8 µM [inhibitor, single point]
CCOc1ccc(-c2nn(-c3ccccc3)cc2/C=C(\C#N)S(=O)(=O)c2ccccc2)cc1C 17.8 µM [inhibitor, partial curve]
COC(=O)c1ccccc1C(=O)N1CCCC(CCC(=O)NCc2ccc(F)c(F)c2)C1 (centres undefined) 39.8 µM [inhibitor, single point]
N=c1c(S(=O)(=O)c2ccccc2)cc2c(=O)n3ccccc3nc2n1CC1CCCO1 (centres undefined) 28.2 µM [inhibitor, partial curve]
O=C(NCCn1cc(SCc2ccccc2F)c2ccccc21)c1c(F)cccc1F 39.8 µM [inhibitor, single point]
O=C(CCS(=O)(=O)c1cccc2nsnc12)N1CCN(c2ccccc2F)CC1 28.2 µM [inhibitor, single point]
CCCN1C/C(=C/c2ccc3c(c2)OCO3)C(=O)/C(=C/c2ccc3c(c2)OCO3)C1 25.1 µM [inhibitor, single point]
CCN(Cc1ccccc1)C(c1cc2cc(C)ccc2[nH]c1=O)c1nnnn1CCOC (centres undefined) 39.8 µM [inhibitor, single point]
Cc1cc(NC(=O)COC(=O)c2cccc(O)c2)no1 8.91 µM [inhibitor, single point]
Oc1ccc2ccccc2c1C=Nc1ccccc1-c1nc2ccccc2[nH]1 20 µM [inhibitor, partial curve]
O=C(O)Cc1cn(-c2ccccc2)nc1-c1ccccc1 44.7 µM [inhibitor, single point]
COc1ccc(/C=N/NC(=O)c2ccc3ccccc3c2)cc1OS(=O)(=O)c1ccc(NC(C)=O)cc1 31.6 µM [inhibitor, partial curve]
CCc1[nH]c(=S)c(C#N)c2c1CCCC2 31.6 µM [inhibitor, single point]
O=C(Cn1c(=O)oc2cc(S(=O)(=O)N3CCc4ccccc43)ccc21)N1CCCCC1 39.8 µM [inhibitor, single point]
CCOC(=O)COc1cc(Br)c(/C=N/Nc2ccccc2)cc1OC 25.1 µM [inhibitor, single point]
Cc1cc(C(=O)N2CCCC(C(=O)c3ccc4ccccc4c3)C2)nn1C (centres undefined) 39.8 µM [inhibitor, single point]
CC(C(=O)NCC1CCCCC1)N(C)Cc1cccc(Cl)c1 (centres undefined) 39.8 µM [inhibitor, single point]
CSc1ccccc1COC(=O)Nc1ccccc1C 37.7 µM [inhibitor, single point]
O=c1[nH]c(C2CCN(S(=O)(=O)c3ccccc3)CC2)nc2c1nnn2Cc1ccccc1 44.7 µM [inhibitor, single point]
Cc1sc2nc(CN(Cc3cccs3)C(=O)C3CC3)[nH]c(=O)c2c1C 12.6 µM [inhibitor, partial curve]

Potency, active:
OCCC1CN(Cc2ccc3nonc3c2)CCN1Cc1ccsc1 (centres undefined) 18.9 µM
CCCOc1ccc(C2c3c(oc4ccccc4c3=O)C(=O)N2CCCN2CCOCC2)cc1 (centres undefined) 8.91 µM
Cc1sc2ncnc(SCc3ccc(C(=O)O)cc3)c2c1C 39.8 µM
CCOC(=O)c1ccc(CS(=O)c2ccc(Cl)cc2)o1 (centres undefined) 2.82 µM
Cc1ccc(C(=O)O/N=C\c2ccc(N3CCOCC3)c([N+](=O)[O-])c2)cc1 2.24 µM
CCOc1ccc(C(Nc2cccnc2)c2cc(Cl)c3cccnc3c2O)cc1 (centres undefined) 1.26 µM
S=C(Nc1ccc(Cl)cc1)Nc1ccc2cn[nH]c2c1 25.1 µM
Cc1occc1-c1nnc(SCC(=O)N2CCc3ccccc32)o1 0.794 µM
CCOC(=O)c1sc(=S)n(-c2cc(F)ccc2F)c1N 20 µM
Cc1ccc(C2NC(=S)NC3=C2N2CCC3CC2)cc1 (centres undefined) 8.91 µM
Fc1ccc(C2CCCN2Cc2nc(-c3cnccn3)no2)cc1 (centres undefined) 28.2 µM
O=C(NCc1ccc(-n2cccc2)cc1)c1cccc(F)c1 15.8 µM
CCOc1ccccc1Nc1nc(-c2sc(C)nc2C)cs1 20 µM

Potency, inactive:
CC(C(=O)Nc1ccccc1-c1ccccc1)N(C)Cc1nc2ccccc2c(=O)[nH]1 (centres undefined)
O=C(N/N=C(\Cc1ncc[nH]1)c1ccccc1)c1cccnc1
Cc1ccc(-n2c(SCC(=O)OC(C)C)nnc2-c2ccncc2)cc1
CC[C@@H](C)C(NC(=O)OC(C)(C)C)c1cn([C@@H](Cc2cc3ccccc3[nH]2)C(=O)N2CCN(C(=O)OC(C)(C)C)CC2)nn1 (some centres undefined)
Cc1ccc(Nc2nnc(SCC(=O)Nc3ccccc3[N+](=O)[O-])s2)cc1
Cn1c(N)c(C(=O)c2cc(-c3ccccn3)nc3ccccc23)c(=O)[nH]c1=O
Cc1ccc(S(=O)(=O)n2ccc(-c3ccc(OCc4c(F)cccc4Cl)cc3)n2)cc1
CN1CCN(C(=O)C(C(=O)c2ccc(F)cc2)n2ccccc2=O)CC1 (centres undefined)
COc1ccc(Cl)cc1N(CC(=O)Nc1ccccc1SC)S(C)(=O)=O
Cc1[nH]c(C(=O)N2CCCCC2)c(C)c1C(=O)NC1CCCCC1
C=CCn1c(Cc2ccc(OC)cc2)nnc1SCc1nc2ccccc2c(=O)[nH]1
CCOC(=O)c1nnn(-c2nonc2-n2cccc2)c1CN1CCCCC1
CCOC(=O)Cn1nc(C)n(-c2ccc(Cl)cc2)c1=O
CCOC(=O)CSc1nc2ccc(Nc3nc(N4CCOCC4)nc(N4CCOCC4)n3)cc2s1
CCOc1ccc(NC(=S)Nc2ccc(OCc3ccccc3)cc2)cc1
Cc1noc(C)c1C(=O)N1CCC2(CCCN(C(=O)Nc3ccccc3)C2)CC1
O=C(O)C1CC(=O)N(c2ccc(OCc3c(F)cccc3Cl)cc2)C1 (centres undefined)
Cc1cc(C(=O)NCc2cccs2)cs1
O=C(CCC(=O)Nc1ccc(F)cc1)N/N=C/c1c[nH]c2ccccc12
COc1ccc(N=C2NC(=O)/C(=C\C=C\c3ccccc3)S2)cc1
N#Cc1ccc(C(=O)NCC(c2ccco2)N2CCCCC2)cc1 (centres undefined)

activity, negative = inhibition, inactive:
CO[C@H]1COC(=O)[C@H](C)NC(=O)C/C=C\[C@@H](C)[C@@H](NS(=O)(=O)c2ccc(C)cc2)COC(=O)[C@H](OCc2ccccc2)/C=C\[C@@H]1C 0.309% [at 13.5 µM]
